These results are taken from PMC6212790.

The other results are listed elsewhere or left out. At the low end of the ranking the order means little.

This assay addresses T1, GST-Rok (full length) (UniProt O34857).
T1 sequence: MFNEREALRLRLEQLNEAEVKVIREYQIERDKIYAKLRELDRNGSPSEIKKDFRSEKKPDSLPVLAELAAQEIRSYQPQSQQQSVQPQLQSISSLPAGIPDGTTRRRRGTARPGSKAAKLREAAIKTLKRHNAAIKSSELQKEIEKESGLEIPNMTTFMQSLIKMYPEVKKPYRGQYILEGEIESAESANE
Put plainly: protein binding microarray.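 Also: rank score from −0.5 (least bound) to 0.5 (best bound).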 Conditions: Rok is a gene silencer of Bacillus subtilis; high values mean tight binding; most listed sequences are background and not binding sites; double strand, one strand shown.
Consider ATGTTGGG, for which the binding signal was found to be 0.0372 E-score.
For CATGATCG, the binding signal is -0.03 E-score.
Then CAAAACTC, with 0.0709 E-score; and CAAATTGG, with -0.14 E-score; and AATTGTAT, with 0.294 E-score.
For CAGTTGCC the value was -0.231 E-score; for GATCCATC, -0.00519 E-score; for GCCACAAC, -0.107 E-score.
As for CAAGAATC, the binding signal is 0.0327 E-score.
For AGCTCAGC the value was -0.249 E-score.
For the sequence ATACAATC, the binding signal turned out to be 0.192 E-score.
CGGGTCGC gave a binding signal of -0.26 E-score.
GAGGTGAC: the binding signal is -0.277 E-score.
GGAGTCAC showed a binding signal of -0.162 E-score.
For ATGACGAG the value was -0.0997 E-score; for ATTAGTCA, 0.27 E-score; for CATTCCGC, -0.201 E-score.
Sequence CCATGTCA had a binding signal of -0.00926 E-score.
TCGTAAAA: the binding signal was 0.208 E-score.
The sequence AGACGCAG registered a binding signal of -0.117 E-score.
Regarding TGACTAAA, the binding signal was determined as 0.0431 E-score.
For CTTTCGCC the value was -0.163 E-score; for CGAGCCTC, -0.29 E-score; for AATAGGGT, -0.0637 E-score.
Then GTTACCCA, with 0.166 E-score; and ACGACGTA, with -0.011 E-score.
Sequence CTTCACTC came in with a binding signal of -0.109 E-score.
As for CCATTGAG, the binding signal is 0.0196 E-score.
Then AATTCCGT, with -0.114 E-score; and CATCGATG, with -0.0477 E-score.
Then CTCGGCCC, with -0.327 E-score.
Consider GAACGGGC, for which the binding signal was -0.23 E-score.
Then AGAAATGA, with 0.0467 E-score.
Then AAATAAAC, with 0.215 E-score.
For the sequence TAAAAAAA, the binding signal was 0.216 E-score.
For AGAGCGAC the value was -0.238 E-score; for AGCGTGGC, -0.207 E-score; for GACATATC, 0.0777 E-score.
Then ACCGTCCG, with 0.00695 E-score.
ACTAATCA returned a binding signal of 0.154 E-score.
As for GTTAACGA, the binding signal came out at 0.241 E-score.
Regarding AACTAGGT, the binding signal stood at 0.361 E-score.
CGAAGGTC came in with a binding signal of -0.263 E-score.
Regarding GCGTTAAA, the binding signal is -0.179 E-score.
For CCTCATGC the value was -0.245 E-score; for CACGCATA, -0.0673 E-score.
In the case of AAGAGGGA, the binding signal was -0.294 E-score.
For AGTGAGCC the value was -0.174 E-score; for AATGATAT, 0.255 E-score.
Sequence GTCGACGA yielded a binding signal of -0.144 E-score.
Then AGCAATAG, with 0.25 E-score.
ATGTGGAG had a binding signal of 0.0655 E-score.
AACCGGGT returned a binding signal of -0.14 E-score.
For AGCCCGCC the value was -0.368 E-score; for AACCTAAC, 0.0219 E-score; for AAATCGAT, 0.0901 E-score.
For the sequence GTAGGTAA, the binding signal is 0.314 E-score.
Take AGCGCCGG: the binding signal was -0.232 E-score.
TACCGCGA registered a binding signal of 0.126 E-score.
For CCGATTGC the value was 0.0643 E-score; for CAATATCC, 0.125 E-score.
In the case of CGTGTGAC, the binding signal is -0.115 E-score.
Then ACCCAGAG, with -0.24 E-score; and CCGTCTAA, with -0.0301 E-score.
For ACGTGCTA the value was 0.0361 E-score.
For CAGCTCGG the value was -0.00356 E-score; for GCCCGCAA, -0.263 E-score.
Turning to AGCCTGGC, the binding signal was -0.364 E-score.
AAATGAAA returned a binding signal of 0.167 E-score.
Then ACCAGCGT, with -0.18 E-score.
Then CTCTGTAA, with 0.13 E-score; and AGCGATCG, with -0.243 E-score.
For AGGTAAGA the value was 0.0529 E-score; for AATATTAT, 0.208 E-score.
As for CCTCTTAC, the binding signal was -0.169 E-score.
For CTGTACGA, the binding signal turned out to be 0.139 E-score.
Then CTCATCCA, with 0.013 E-score; and AAGCTGTC, with -0.105 E-score.
For TATAAAGA the value was 0.124 E-score; for AGATCTAG, 0.167 E-score; for GGAGTAGA, 0.0421 E-score.
For the sequence GCTAGAGA, the binding signal was 0.0153 E-score.
For AGTCGATA the value was 0.178 E-score; for GCAGAGTA, -0.152 E-score.
For CGGTAATA, the binding signal was 0.372 E-score.
In turn, AACAGGCC had a binding signal of -0.11 E-score.
On to GATACATA, for which the binding signal worked out at 0.388 E-score.
Then GCCAGGCA, with -0.269 E-score; and CCAACTCA, with -0.106 E-score; and ACAATCAC, with 0.118 E-score.
ATAAGCTG came in with a binding signal of -0.0404 E-score.
As for ACAAGTAC, the binding signal was found to be 0.196 E-score.
For the sequence TCAGAACA, the binding signal came out at 0.0757 E-score.
Sequence ACCATCTA yielded a binding signal of 0.351 E-score.
Then GTGTCCCA, with -0.229 E-score; and AACGTAAG, with 0.0618 E-score.
For GGGCTTGA the value was -0.268 E-score; for GGACTTTA, -0.192 E-score; for ACGTAAAG, 0.0236 E-score.
Then ATCTGAAC, with 0.0438 E-score; and AACGTAAA, with 0.0829 E-score.
Regarding ATAGGCGG, the binding signal was -0.11 E-score.
For GGTGCTTA the value was -0.177 E-score.
On to ACAAGTAG, for which the binding signal stood at 0.254 E-score.
Then ACGCCGGC, with -0.271 E-score; and GCCGAGGA, with -0.37 E-score; and CATTTCCG, with -0.115 E-score.
For ACATATGT the value was 0.401 E-score; for ACTGGTTG, 0.107 E-score; for TCAGAAGA, -0.0825 E-score.
In turn, GCGAAAAA registered a binding signal of 0.0852 E-score.
In turn, ACTGCTTG yielded a binding signal of -0.044 E-score.
Then AATGTGCC, with 0.0696 E-score.
Then CGTCGGCA, with -0.211 E-score; and TACAACCA, with 0.132 E-score; and GCCAAGAA, with -0.0508 E-score.
For GCGCTTCC the value was -0.171 E-score.
Regarding AGACTGCT, the binding signal was -0.0678 E-score.
For CATCCGGG the value was -0.0787 E-score.
For ACTAGCTA the value was 0.347 E-score.
For GCCCCAGC the value was -0.441 E-score.
On to CTCGCCGC, for which the binding signal is -0.198 E-score.
For AACCTGCG the value was -0.0799 E-score; for CCGGCGTC, -0.252 E-score.
For CATTCAGA the value was 0.0074 E-score.
For ATAACCAT the value was 0.115 E-score; for CCAGAACC, -0.0913 E-score; for CATATCCC, 0.0535 E-score.
GCCGTAAA registered a binding signal of 0.00925 E-score.
For GGCTGGCA the value was -0.322 E-score; for ACACCACA, 0.204 E-score; for ATACCTCA, 0.199 E-score.
The sequence CCAAGAAG showed a binding signal of -0.136 E-score.
Then CACTACAC, with 0.0266 E-score; and CTGAGCTA, with 0.0278 E-score; and CGCTCGGC, with -0.334 E-score.
GGGCCACA yielded a binding signal of -0.27 E-score.
As to CACAAGTG, the binding signal is -0.125 E-score.
For GGCCAATA the value was -0.0748 E-score; for CGTGACCA, -0.0921 E-score; for TAGCCACA, -0.165 E-score.
CGGGAACA: the binding signal is -0.208 E-score.
Then GACGTGGC, with -0.152 E-score.
For AACCAAGG the value was -0.205 E-score; for ACGATCCA, 0.0221 E-score.
In turn, ACTTAATC returned a binding signal of 0.191 E-score.
For CTCGCGAC the value was -0.227 E-score.
Then GGAGTCTA, with -0.0502 E-score; and ACCCTTAT, with 0.0879 E-score; and ACGTCGCA, with -0.0971 E-score.
Then CACTTACG, with -0.0127 E-score; and ATCGTTCA, with -0.0415 E-score; and TCGCAAAA, with 0.0819 E-score.
Sequence GCGATCTA yielded a binding signal of 0.209 E-score.
For ACTAATGG the value was 0.159 E-score; for CGCTGTAC, -0.12 E-score.
Sequence GCTTGTGA came in with a binding signal of 0.000844 E-score.
In turn, CAATTAGA showed a binding signal of 0.17 E-score.
Regarding CGATGGCA, the binding signal was -0.126 E-score.
In the case of ATCGGTTG, the binding signal is 0.0574 E-score.
For AATTCATA the value was 0.0902 E-score; for TCCAAGAA, -0.00857 E-score.
GTTTCATA displayed a binding signal of 0.157 E-score.
For AGTATGGG the value was 0.0114 E-score; for CGCTTGTC, -0.146 E-score; for CAATTTCC, 0.0102 E-score.
In turn, AAATTAGT registered a binding signal of 0.293 E-score.
Then TCTTAGAA, with -0.0577 E-score.
Then ATCCTGGG, with -0.0382 E-score.
The sequence CTCATTCC came in with a binding signal of -0.169 E-score.
With GCATTTAA, the binding signal was determined as 0.115 E-score.
The sequence GTTGACTA displayed a binding signal of 0.226 E-score.
In turn, CGTCAGTC came in with a binding signal of -0.141 E-score.
For CCAGGTAC the value was 0.00748 E-score; for CTGCTTTA, 0.0813 E-score; for CGAATACG, 0.111 E-score.
Then CGCGGACC, with -0.26 E-score; and CACTCATA, with 0.0892 E-score; and ACCCTATG, with 0.0674 E-score.
For the sequence AACGGCAA, the binding signal came to 0.101 E-score.
Then ACAAACAC, with 0.159 E-score; and CGATCACA, with -0.059 E-score; and ACTTAGCT, with 0.0091 E-score.
Then GTCCATAA, with 0.112 E-score; and AACTGCAC, with 0.109 E-score.
Then CATTTGCC, with -0.136 E-score.
In turn, ACTCCACC showed a binding signal of -0.123 E-score.
Consider GCCTATAA, for which the binding signal was 0.158 E-score.
CAAAACGC: the binding signal is -0.238 E-score.
On to AGGCGAAA, for which the binding signal was -0.322 E-score.
For the sequence TCTTGGAA, the binding signal is -0.123 E-score.
With ACCTGTCC, the binding signal was -0.135 E-score.
For CGATTGCA the value was 0.00566 E-score; for AGTGATCC, -0.173 E-score.
GACTAAGC returned a binding signal of -0.101 E-score.
On to CGAGTCTA, for which the binding signal stood at 0.0197 E-score.
Consider ATCCAACC, for which the binding signal is -0.142 E-score.
Then ACTTAGTA, with 0.252 E-score; and ATCAATGA, with 0.0966 E-score.
As to CATTTCAC, the binding signal was determined as 0.0165 E-score.
For GCCGCGCA the value was -0.193 E-score.
With GCTGCCTA, the binding signal came to 0.0322 E-score.
For CCACATAG the value was 0.15 E-score; for ATAGGCCA, -0.0478 E-score; for GCACTCAC, -0.0539 E-score.
AGTACATC: the binding signal was determined as 0.215 E-score.
For ACGTCCTC the value was -0.22 E-score; for AGAAACGA, 0.0933 E-score.
In turn, TCAGACGA came in with a binding signal of -0.112 E-score.
On to CGCGAGCC, for which the binding signal was -0.174 E-score.
Then AAGTGTCT, with -0.075 E-score.
As to AGGACTCG, the binding signal is -0.144 E-score.
Then CGATTAGA, with 0.132 E-score; and GCCACCTA, with -0.101 E-score.
Then GCAGAAGA, with -0.0641 E-score; and AGTGGAAT, with 0.04 E-score.
GGAGTTGA showed a binding signal of -0.142 E-score.
For CTATCAGC the value was 0.119 E-score.
For AAAAAAGT the value was 0.00546 E-score.
